Test results reported in patent US20060094649A1, “Hla-a1,-a2,-a3,-a24,-b7, and-b44 tumor associated antigen peptides and compositions” (priority 2002, published 2006).

Tested on: tumor cell lines expressing the TAA
Assay: CTL recognition of endogenous targets (tumor cell lines expressing the TAA)
Format: cell-based, human
Settings: SW480 (A3−, CEA+) and SW403 (A3+, CEA+); only wells positive for peptide-pulsed targets

## CC[C@H](C)[C@H](NC(=O)CNC(=O)[C@H](Cc1ccccc1)NC(=O)[C@@H](NC(=O)[C@@H](N)C(C)C)C(C)C)C(=O)N[C@@H](CC(C)C)C(=O)N[C@H](C(=O)N[C@@H](CCCCN)C(=O)N[C@@H](CCCNC(=N)N)C(=O)O)[C@@H](C)CC [compound 57]
  Number of CTL inductions yielding positive responses/total tested, Tumor target cell line: 0/1
